Measured values as given in a collection of fitness landscapes (doi:10.1016/j.celrep.2020.107928).
The full ranking holds about 81,000 sequences; the median of “one-hybrid fitness for binding parS DNA” is about -0.17, and the highest 2% start at about 0.51. This is one part of the list.

B1: Caulobacter ParB omega fusion; a variant is named by its letters at X, in order, B8GW30 (parent)
chain: MESVVVGEPGMSEGRRGLGRGLSALLGEVDAAPAQAPGEQLGGSREAPIEILQRNPDQPRRTFREEDLEDLSNSIREKGVLQPILVRPSPDTAGEYQIVAGERAWRAAQRAGLKTVPIMVRELDDLAVLEIGIIENVQRADLNVLEEALSYKVLMEKFERTQENIAQTIGKSXSHVANXMRLLXLPDEVQSYLVSGELTAXHARAIAAAADPVALAKQIIEGGLSVRETEALARKAPNLSAGKSKGGRPPRVKDTDTQALESDLSSVLGLDVSIDHRGSTGTLTITYATLEQLDDLCNRLTRGI

Variants of: B1
Assay: one-hybrid fitness for binding parS DNA (scaled: cognate 1, non-cognate 0); higher = stronger binding
Conditions: with parS DNA site
Method in brief: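 Fitness here means the log change in variant-to-wild-type read ratio between plasmids sequenced before and after selection. That scale was set so cognate equals 1 and non-cognate equals 0. The selection was a bacterial one-hybrid screen of Caulobacter ParB libraries, four specificity codons randomised, in E. coli USO carrying a HIS3 reporter with the site 19 bp from the promoter, grown 48 hours at 37°C on M9-minus-histidine with 0.1 mM IPTG and 5 mM 3-AT.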

HSMY and LTFR cannot be ordered by “one-hybrid fitness for binding parS DNA” value: ≤ 0.2 for the first, ≤ 0.2 for the second.

LQHD and TFFG cannot be ordered by “one-hybrid fitness for binding parS DNA” value: ≤ 0.2 for the first, ≤ 0.2 for the second.

TTSQ and DRQY cannot be ordered by “one-hybrid fitness for binding parS DNA” value: ≤ 0.2 for the first, ≤ 0.2 for the second.

Going from HDLG to RIMA, the “one-hybrid fitness for binding parS DNA” value rises from ≤ 0.2 to 0.6.

GSVG and DTTM cannot be ordered by “one-hybrid fitness for binding parS DNA” value: ≤ 0.2 for the first, ≤ 0.2 for the second.

TAVW and HGNG cannot be ordered by “one-hybrid fitness for binding parS DNA” value: ≤ 0.2 for the first, ≤ 0.2 for the second.

ATKT and FSTE cannot be ordered by “one-hybrid fitness for binding parS DNA” value: ≤ 0.2 for the first, ≤ 0.2 for the second.

PVKA and KHQD cannot be ordered by “one-hybrid fitness for binding parS DNA” value: ≤ 0.2 for the first, ≤ 0.2 for the second.

Going from RPNY to VYHR, the “one-hybrid fitness for binding parS DNA” value rises from ≤ 0.2 to 0.253.

QGGS and DTGG cannot be ordered by “one-hybrid fitness for binding parS DNA” value: ≤ 0.2 for the first, ≤ 0.2 for the second.

Compared with RATF, MTKR is lower in “one-hybrid fitness for binding parS DNA” value: 0.227 for the first, ≤ 0.2 for the second.

LLPT and CYYP cannot be ordered by “one-hybrid fitness for binding parS DNA” value: ≤ 0.2 for the first, ≤ 0.2 for the second.

NCRT and KPCR cannot be ordered by “one-hybrid fitness for binding parS DNA” value: ≤ 0.2 for the first, ≤ 0.2 for the second.

QPRE and QYAL cannot be ordered by “one-hybrid fitness for binding parS DNA” value: ≤ 0.2 for the first, ≤ 0.2 for the second.

GMLL and PPQC cannot be ordered by “one-hybrid fitness for binding parS DNA” value: ≤ 0.2 for the first, ≤ 0.2 for the second.

First: RLPS
Second: SQPW
The “one-hybrid fitness for binding parS DNA” value of the first is higher: 0.86 for the first, ≤ 0.2 for the second.

LHPN and PAKN cannot be ordered by “one-hybrid fitness for binding parS DNA” value: ≤ 0.2 for the first, ≤ 0.2 for the second.

MTKA and CVLE cannot be ordered by “one-hybrid fitness for binding parS DNA” value: ≤ 0.2 for the first, ≤ 0.2 for the second.

SIYY and RCYP cannot be ordered by “one-hybrid fitness for binding parS DNA” value: ≤ 0.2 for the first, ≤ 0.2 for the second.

HDDR and AFMM cannot be ordered by “one-hybrid fitness for binding parS DNA” value: ≤ 0.2 for the first, ≤ 0.2 for the second.

TVQN and HSWS cannot be ordered by “one-hybrid fitness for binding parS DNA” value: ≤ 0.2 for the first, ≤ 0.2 for the second.

QQGL and AKTI cannot be ordered by “one-hybrid fitness for binding parS DNA” value: ≤ 0.2 for the first, ≤ 0.2 for the second.

RCRI and GMHY cannot be ordered by “one-hybrid fitness for binding parS DNA” value: ≤ 0.2 for the first, ≤ 0.2 for the second.

EGGR and EICG cannot be ordered by “one-hybrid fitness for binding parS DNA” value: ≤ 0.2 for the first, ≤ 0.2 for the second.

FSWC and TETT cannot be ordered by “one-hybrid fitness for binding parS DNA” value: ≤ 0.2 for the first, ≤ 0.2 for the second.

RPHL and DQSN cannot be ordered by “one-hybrid fitness for binding parS DNA” value: ≤ 0.2 for the first, ≤ 0.2 for the second.

QKKR and DLYE cannot be ordered by “one-hybrid fitness for binding parS DNA” value: ≤ 0.2 for the first, ≤ 0.2 for the second.

PMPG and CDCR cannot be ordered by “one-hybrid fitness for binding parS DNA” value: ≤ 0.2 for the first, ≤ 0.2 for the second.

STVI and TAND cannot be ordered by “one-hybrid fitness for binding parS DNA” value: ≤ 0.2 for the first, ≤ 0.2 for the second.

YYVC and PAFL cannot be ordered by “one-hybrid fitness for binding parS DNA” value: ≤ 0.2 for the first, ≤ 0.2 for the second.

VMGC and MCSP cannot be ordered by “one-hybrid fitness for binding parS DNA” value: ≤ 0.2 for the first, ≤ 0.2 for the second.

Compared with RTHC, PWMD is lower in “one-hybrid fitness for binding parS DNA” value: 0.978 for the first, ≤ 0.2 for the second.

QPVK and DAAG cannot be ordered by “one-hybrid fitness for binding parS DNA” value: ≤ 0.2 for the first, ≤ 0.2 for the second.

NYNS and CQAY cannot be ordered by “one-hybrid fitness for binding parS DNA” value: ≤ 0.2 for the first, ≤ 0.2 for the second.

NYRD and YVTN cannot be ordered by “one-hybrid fitness for binding parS DNA” value: ≤ 0.2 for the first, ≤ 0.2 for the second.

IPDV and DLST cannot be ordered by “one-hybrid fitness for binding parS DNA” value: ≤ 0.2 for the first, ≤ 0.2 for the second.

DNDV and VVPD cannot be ordered by “one-hybrid fitness for binding parS DNA” value: ≤ 0.2 for the first, ≤ 0.2 for the second.

KYQS and YVTH cannot be ordered by “one-hybrid fitness for binding parS DNA” value: ≤ 0.2 for the first, ≤ 0.2 for the second.

ATQV and YVYG cannot be ordered by “one-hybrid fitness for binding parS DNA” value: ≤ 0.2 for the first, ≤ 0.2 for the second.

HMCW and GCRG cannot be ordered by “one-hybrid fitness for binding parS DNA” value: ≤ 0.2 for the first, ≤ 0.2 for the second.

ANFC and QFNV cannot be ordered by “one-hybrid fitness for binding parS DNA” value: ≤ 0.2 for the first, ≤ 0.2 for the second.

TMAD and LPSN cannot be ordered by “one-hybrid fitness for binding parS DNA” value: ≤ 0.2 for the first, ≤ 0.2 for the second.
